From PubChem BioAssay AID624417 (National Center for Advancing Translational Sciences (NCATS), 2012)
The campaign covered roughly 410,000 compounds. About 6,400 (1.6%) were called active. The shares of active, inactive and inconclusive entries below differ from those in the screen. Calls follow the shape of the dose curve; as a rule, active = well fitted inhibition curve with a large enough effect; inconclusive = small, poorly fitted or top-dose-only effect; inactive = no such curve, though single readings can be large or run the other way. Potencies of inconclusive entries are left out as doubtful fits.

Each compound was assayed against Glucagon-like peptide 1 receptor (Homo sapiens) (UniProt P43220) (assay: qHTS of GLP-1 Receptor Inverse Agonists (Inhibition Mode)). Details: HEK293 GLP-1R CRE-luciferase, luminescence, 24 h, GLP-1R form is constitutively active; activity change, negative = inhibition: at 38.3 µM (top of the series) unless noted.
UniProt P43220, sequence (P43220 whole entry, looked up): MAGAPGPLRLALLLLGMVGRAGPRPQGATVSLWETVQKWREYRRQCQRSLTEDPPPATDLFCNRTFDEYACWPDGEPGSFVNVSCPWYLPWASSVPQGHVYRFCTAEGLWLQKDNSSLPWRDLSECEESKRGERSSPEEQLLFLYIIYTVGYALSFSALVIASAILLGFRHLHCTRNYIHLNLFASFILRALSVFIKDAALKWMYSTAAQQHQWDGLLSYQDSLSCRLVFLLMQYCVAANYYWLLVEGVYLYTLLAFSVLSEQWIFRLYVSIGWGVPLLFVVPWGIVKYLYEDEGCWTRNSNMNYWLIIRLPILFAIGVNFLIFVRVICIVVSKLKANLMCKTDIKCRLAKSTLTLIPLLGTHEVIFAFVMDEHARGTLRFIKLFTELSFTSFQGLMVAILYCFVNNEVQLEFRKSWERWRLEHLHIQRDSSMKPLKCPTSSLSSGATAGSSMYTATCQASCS
In short: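 Cells are plated, allowed 12 hours at 37 deg C, then treated with compounds for 24 hr before luciferase detection reagent is added and luminescence is read after 12 min at room temperature. The HEK293 line carries constitutively active GLP-1R with a cAMP-responsive reporter.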
% is scaled to controls: 0 for no effect and ±100 for the full control effect; potency is read from the fitted curve at half-maximal effect; tags tell the direction and shape of the fitted curve.
Also: nearly all actives have a fitted effect of over 55% in size.

Structure (SMILES) | activity change, negative = inhibition | Potency
Cc1cc(-n2c(C)nc3ccccc3c2=O)ccc1NC(=O)c1ccc(C)c([N+](=O)[O-])c1 | inactive: 8.27% | –
CC1(Cc2ccc(OC(F)(F)F)cc2)C(=O)Nc2ccc(S(=O)(=O)NC3CCCCC3)cc21 (stereo not given) | – | inconclusive [inhibitor, single point]
CCCn1c(N)c(C(=O)COc2ccc(Br)cc2F)c(=O)n(C)c1=O | – | inconclusive [inhibitor, single point]
Cc1ccc(NC(=O)CCC(=O)N/N=C/c2ccccc2O)cc1 | – | inconclusive [inhibitor, single point]
O=C(C1COc2ccccc2O1)N1CCN(c2ccc(C(F)(F)F)cn2)CC1 (stereo not given) | – | inconclusive [inhibitor, single point]
O=C(COc1ccccc1)Nc1cccc(-c2ccc(N3CCOCC3)nn2)c1 | – | inconclusive [inhibitor, single point]
CCc1ccc(C(=O)NNc2ccc(Cl)cc2)cc1 | – | active: 1 µM
CCn1cc([N+](=O)[O-])c(C(=O)N2CCCC2)n1 | inactive: 0% | –
O=C(c1ccc2c(=O)n(CCc3ccccc3)c(=O)[nH]c2c1)N1CCN(c2ccccc2)CC1 | – | inconclusive [inhibitor, full curve, poor fit]
COC(=O)c1ccc(C(=O)OC)c(NC(=S)N2CCOCC2)c1 | inactive: 4.6% | –
Cc1csc(NC(=O)c2ccccc2)n1 | inactive: -12.8% | –
Cc1nc2nc(SCc3c(F)cccc3Cl)nn2c(C)c1Cc1ccccc1 | – | inconclusive [inhibitor, single point]
CN(C)c1ccc(-c2csc(C(O)(c3ccccc3)C(F)(F)F)n2)cc1 (stereo not given) | – | inconclusive [inhibitor, partial curve, poor fit]
Cc1ccc(CN(C(=O)COc2ccc(Cl)c(C)c2)c2ccccn2)o1 | – | inconclusive [inhibitor, single point]
Cc1cc(C)cc(N(CC(=O)NC2CCC(C)CC2)S(=O)(=O)c2c(C)noc2C)c1 (stereo not given) | – | inconclusive [inhibitor, partial curve, poor fit]
CCOc1ccc2ncc(S(=O)(=O)c3ccc(C)cc3)c(N3CCC4(CC3)OCCO4)c2c1 | – | inconclusive [inhibitor, single point]
COc1ccc(-c2csc(NC(=O)C3CC(=O)N(Cc4ccco4)C3)n2)cc1 (stereo not given) | – | inconclusive [inhibitor, partial curve, poor fit]
CC(=O)CCc1oc2ccc(C)cc2c1Cc1ccccc1 | – | inconclusive [inhibitor, partial curve, poor fit]
O=C(CN1C(=O)COc2ccc(S(=O)(=O)N3CCOCC3)cc21)N1CCN(c2cccc(C(F)(F)F)c2)CC1 | inactive: -6.19% | –
CCCCN(CCCC)CP(=O)(c1ccccc1)c1ccccc1 | – | inconclusive [inhibitor, partial curve, poor fit]

Structure (SMILES) | activity change, negative = inhibition | Potency
O=C(Cc1c[nH]c2ccccc12)N/N=C/c1cccc(F)c1 | – | inconclusive [inhibitor, single point]
CCC(CC)NC(=O)c1ccccc1Oc1ccccc1 | – | inconclusive [inhibitor, single point]
CCN1CCN(c2nc(S(=O)(=O)c3ccc(C)cc3)c(Cl)s2)CC1 | – | inconclusive [inhibitor, single point]
CN(C)c1ccc(CNC(=O)C2(C)Cc3c(-c4ccc(N(C)C)cc4)ccnc3O2)cc1 (stereo not given) | – | inconclusive [inhibitor, single point]
Cc1cccc(CC2CC(=O)N(C3CCCCC3)C2=O)c1 (stereo not given) | – | inconclusive [inhibitor, partial curve]
O=C1C(Cl)=C(NCCc2ccccc2)C(=O)N1CCc1ccccc1 | inactive: -7.11% | –
CSc1ccc(CCNC(=O)CS(=O)(=O)Cc2nc(-c3ccccc3F)oc2C)cc1 | inactive: 9.93% | –
COC(=O)C1=C(C)N(C(C)c2ccccc2)C(=O)/C1=C\c1ccco1 (stereo not given) | – | inconclusive [inhibitor, partial curve, poor fit]
Cc1ccc(OCC(=O)N/N=C/c2cn[nH]c2-c2ccc(Cl)c(Cl)c2)cc1 | – | inconclusive [inhibitor, partial curve, poor fit]
O=C(NCc1ccccc1Cl)c1cc2c(s1)-c1ccccc1SC2 | – | inconclusive [inhibitor, single point]
CN(CC(=O)Nc1ccccc1Br)CC(=O)NC(c1ccccc1)c1ccccc1 | – | inconclusive [inhibitor, partial curve, poor fit]
CCN(CC)S(=O)(=O)c1cc(NS(=O)(=O)c2cccc(Cl)c2)ccc1C | – | inconclusive [inhibitor, partial curve, poor fit]
CC(C)(C)c1ccc(OCC(=O)N2CCN(c3ncccn3)CC2)cc1 | – | inconclusive [inhibitor, single point]
Cc1ccc(S(=O)(=O)N(CCC(=O)NCC(c2ccccc2)N(C)C)c2ccccc2)cc1 (stereo not given) | – | inconclusive [inhibitor, single point]
COC(=O)c1cc(C)nc2c1C(=O)C(=O)C=C2N1CCOCC1 | – | inconclusive [inhibitor, full curve, poor fit]
O=S(=O)(c1ccc2c(c1)OCCO2)N1CCN(Cc2ccc3c(c2)OCO3)CC1 | inactive: 0% | –
CCCN1C(=O)c2[nH]nc(-c3ccccc3O)c2C1c1cccc(OCc2ccccc2)c1 (stereo not given) | – | inconclusive [inhibitor, single point]
C[C@H](CO)N1C[C@H](C)[C@@H](CN(C)C(=O)Nc2ccc(C(F)(F)F)cc2)Oc2ccc(NS(=O)(=O)c3ccccc3)cc2C1=O | – | inconclusive [inhibitor, single point]
O=C(CCC(=O)N1CCN(c2ccc(O)cc2)CC1)c1cccs1 | – | inconclusive [inhibitor, partial curve, poor fit]
O=S(=O)(c1ccc(C(F)(F)F)cc1)N1CCN(CCOc2ccccc2)CC1 | – | inconclusive [inhibitor, partial curve, poor fit]
